Measurements from PubChem BioAssay AID1347417 (National Center for Advancing Translational Sciences (NCATS), 2020).
The whole screen tested about 120,000 compounds, of which about 5,300 (4.4%) were called active. This list was built around the results that the source calls inconclusive (neither active nor inactive); the mix of calls is not that of the screen. The call rests on the fitted dose curve; in most records, active means well fitted inhibition curve with a large enough effect; inconclusive means small, poorly fitted or top-dose-only effect; inactive means no such curve, though single readings can be large or run the other way. Potencies of inconclusive entries are doubtful fits and often do not repeat.

Assay: qHTS Primary assay for Inhibitors of Plasmodium falciparum Dd2 growth in vitro; further: nearly all actives have a fitted effect of over 65% in size;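 on activity, negative = inhibition: plate controls were DMSO vehicle for no effect and reference drug for full effect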
Conditions: P. falciparum Dd2 growth, SYBR Green, 72 h; activity, negative = inhibition: at 28.9 µM (top of the series) unless noted; series mostly up to 28.9 µM
Procedure, shortened: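 Infected erythrocytes (Dd2, 0.3% parasitemia, 2.5% hematocrit final) are added to compound in RPMI-1640/Albumax II medium, grown 72 h at 37C in low oxygen, then lysed with saponin/Triton-X containing SYBR Green and read by fluorescence.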
Potency means the concentration at half of the fitted maximal effect; tags describe the fitted curve by direction and shape.

With `COc1cccc(-c2ccc3ncn(-c4ccc(F)cc4F)c(=O)c3n2)c1OC` as the compound, how does the Potency read?
Its Potency is inconclusive: 14.1 µM [inhibitor, partial curve, poor fit].

For `CCOC(=O)c1ccc(N2C(=O)c3n[nH]c(C)c3C2c2ccc(OCC)cc2)cc1` (stereo unspecified), which Potency is on record?
Its Potency is inconclusive: 6.31 µM [inhibitor, partial curve, poor fit].

With `Cn1ncc2c(C(=O)NCc3cccnc3)cc(-c3ccc([S+](C)(=O)[O-])cc3)nc21` as the compound, how does the Potency read?
Its Potency is inconclusive: 7.94 µM [inhibitor, single point].

Which Potency does the source give for `COC(=O)N1CCn2c(nnc2-c2ccc(OC)cc2)C1` here?
Its Potency is inconclusive: 6.31 µM [inhibitor, full curve].

With `Cc1nn(-c2ccccc2)c(C)c1[C@@H]1C=C[C@@H](NC(=O)CC(C)(C)CC(=O)O)C1` as the compound, how does the “activity, negative = inhibition” value read?
The value was inactive: -3.54% [at 44.1 µM].

Which Potency does the source give for `O=C(NCc1ccccc1)C1CN(S(=O)(=O)c2cccnc2)CC12CCCCC2` (stereo unspecified) here?
Its Potency is inconclusive: 3.98 µM [inhibitor, partial curve, poor fit].

For `COc1ccc(CN2CCCn3nc(C)c(-c4ccccc4C(C)C)c32)cc1O`, which Potency is on record?
Its Potency is inconclusive: 5.62 µM [inhibitor, partial curve, poor fit].

With `CCNC(=O)c1n[nH]c2c1CN(C(=O)c1ccccc1OC(F)(F)F)CC2` as the compound, how does the “activity, negative = inhibition” value read?
Its value is inactive: -9.26%.

For `CC(C)n1cc(C(=O)N2CC[C@H](N3CCOCC3)[C@H](CCC(=O)O)C2)cn1`, which “activity, negative = inhibition” value is on record?
The value was inactive: 13.4%.

For `COc1ccccc1N1CCN(C(=O)c2cc(S(=O)(=O)N3CCC(C)CC3)cn2C)CC1`, which Potency is on record?
The Potency was active: 8.91 µM.

Which Potency does the source give for `Cc1ccc(NC(=O)N2CCC(OC3CCN(S(C)(=O)=O)CC3)CC2)cc1F` here?
The Potency was active: 0.447 µM.

For `CCCN(c1ccc(C(C)C)cc1)S(=O)(=O)c1ccc2c(c1)oc(=O)n2CC(=O)OCC`, which Potency is on record?
The Potency was inconclusive: 10 µM [inhibitor, single point].

Which Potency does the source give for `COc1cccc(Cn2c(CNS(=O)(=O)c3ccc(C(C)(C)C)cc3)nc3cccnc32)c1` here?
The Potency was inconclusive: 12.6 µM [inhibitor, single point].

For `CNC(=O)N1CCc2c(sc3ncnc(N(C)C)c23)C1`, which Potency is on record?
Its Potency is inconclusive: 0.251 µM [inhibitor, full curve, poor fit].

For `CN(CCNC(=O)c1cn2ccnc(-c3ccccc3)c2n1)C1CCCCC1`, which “outcome” value is on record?
Its value is “inactive”.

With `CCN(Cc1ccccc1)C(=O)c1nn(-c2ccc(OC)cc2)c(=O)c2c1c1ccccc1n2C` as the compound, how does the Potency read?
The Potency was inconclusive: 17.8 µM [inhibitor, single point].

With `Cn1cccc1CN1CC2(C1)C(=O)Nc1ccccc12` as the compound, how does the Potency read?
Its Potency is inconclusive: 15.8 µM [inhibitor, single point].

For `Cc1ccsc1C(=O)N1CC(Oc2ccccc2-c2nc(-c3cnccn3)no2)C1`, which Potency is on record?
The Potency was inconclusive: 2.24 µM [inhibitor, single point].

With `CNC(=O)N1CCC(C2CCN(C(=O)c3cc(C)n(CCOC)c3C)C2)CC1` (stereo unspecified) as the compound, how does the “activity, negative = inhibition” value read?
The value was inactive: -25.8%.

Which “activity, negative = inhibition” value does the source give for `Cc1nc(-c2c3n(c(=O)n(CC(=O)Nc4ccc(Cl)cc4F)c2=O)CCCC3)no1` here?
Its value is inactive: -13%.

With `Cc1ccc(NC(=O)CCn2ccn3nc4c(c3c2=O)CCCC4)c(C)c1` as the compound, how does the “outcome” value read?
Its value is “inactive”.

For `O=C(O)C[C@@H]1CCN(C(=O)C2CCC2)C[C@@H]1CCN1CCC(n2c(=O)[nH]c3ccccc32)CC1`, which “activity, negative = inhibition” value is on record?
Its value is inactive: 12.3%.

With `Cc1nn(-c2ccc(C(C)(C)C)cc2)c(C)c1[C@@H]1C=C[C@@H](NC(=O)Nc2ccccc2)C1` as the compound, how does the “activity, negative = inhibition” value read?
Its value is inactive: -13% [at 44.1 µM].

With `C[S+](=O)([O-])c1ccc(-c2nc(C(=O)NCc3cccs3)n3ccccc23)cc1` as the compound, how does the Potency read?
The Potency was inconclusive: 3.98 µM [inhibitor, single point].

Which Potency does the source give for `Cc1ccc(-c2cc(N3CCC(CNC(=O)c4ccc(=O)[nH]c4)CC3)n[nH]2)cc1` here?
Its Potency is active: 12.6 µM.

Which Potency does the source give for `O=C(NCc1ccccc1)C1CCN(S(=O)(=O)c2ccc3c(c2)CCCN3C(=O)C2CCC2)CC1` here?
Its Potency is inconclusive: 11.2 µM [inhibitor, single point].

For `COc1ccc2[nH]c3c(c2c1)CCNC31CCN(C(=O)c2ccoc2)CC1`, which “activity, negative = inhibition” value is on record?
The value was inactive: -19%.

For `CCNC(=O)c1c(C)oc2c1CN(C(=O)CC)CC2`, which Potency is on record?
Its Potency is inconclusive: 17.8 µM [inhibitor, single point].

For `Cc1ccc(-c2cn(-c3cccc(Cl)c3)c(S(=O)(=O)CC(=O)Nc3cccc(C)c3)n2)cc1`, which Potency is on record?
Its Potency is inconclusive: 15.8 µM [inhibitor, single point].

For `Cc1ccc(C(=O)N2CCC3(CC2)CC(N(Cc2ccccc2)C2CC2)CCO3)cn1` (stereo unspecified), which Potency is on record?
Its Potency is inconclusive: 17.8 µM [inhibitor, single point].

With `Cc1cc(C)cc(-n2ccn(CC(=O)Nc3cc(C)ccc3C)c(=O)c2=O)c1` as the compound, how does the “activity, negative = inhibition” value read?
The value was inactive: 64.1%.

Which Potency does the source give for `CCN1CCC(CCNC(=O)CCC[C@H]2NC[C@@H]3CC2CN(Cc2ccccc2)C3)CC1` here?
Its Potency is inconclusive: 14.1 µM [inhibitor, single point].

Which Potency does the source give for `CCOc1ccc(OCC)c(NC(=O)c2ccc(-c3ccccc3)s2)c1` here?
The Potency was inconclusive: 11.2 µM [inhibitor, partial curve, poor fit].

For `C=CCN(C)C[C@H]1CN2CC[C@H]1C[C@@H]2CNC(=O)Nc1ccsc1`, which Potency is on record?
Its Potency is inconclusive: 11.2 µM [inhibitor, partial curve, poor fit].

For `Cc1ccc2c(n1)N(C)[C@H](CO)CCN(Cc1ccccc1F)C2`, which Potency is on record?
Its Potency is inconclusive: 31.6 µM [inhibitor, single point].

With `Cc1ccc(C2Cn3nnc(-c4noc(C5(c6ccccc6)CC5)n4)c3CO2)cc1` (stereo unspecified) as the compound, how does the Potency read?
Its Potency is inconclusive: 2.82 µM [inhibitor, partial curve, poor fit].

For `CCN1CCCC12Cc1ccccc1CN(C(=O)c1ccccc1)C2` (stereo unspecified), which Potency is on record?
The Potency was inconclusive: 11.2 µM [inhibitor, partial curve, poor fit].

For `COc1ccc(OC)c(NC(=O)c2cc(S(=O)(=O)NCCc3ccc(Cl)cc3)ccc2F)c1`, which Potency is on record?
Its Potency is inconclusive: 11.2 µM [inhibitor, single point].

Which Potency does the source give for `COCCN1CCCC(c2[nH]ccc2C(=O)NCCc2c[nH]c3ccccc23)C1` (stereo unspecified) here?
Its Potency is inconclusive: 5.62 µM [inhibitor, partial curve].

Which Potency does the source give for `CC(=O)N1CCC(N2CCC(N3C(=O)C4(CCCCC4)C3c3ccncc3)CC2)CC1` (stereo unspecified) here?
The Potency was inconclusive: 11.2 µM [inhibitor, single point].

Which Potency does the source give for `COc1ccc(NC(=O)c2cc3n(n2)CC(c2ccc4c(c2)OCO4)OC3)cc1OC` (stereo unspecified) here?
Its Potency is inconclusive: 2.24 µM [inhibitor, full curve, poor fit].

With `Cc1cccc(NC(=O)C(=O)NCC(c2cccnc2)N2CCc3ccccc3C2)c1C` (stereo unspecified) as the compound, how does the Potency read?
The Potency was inconclusive: 17.8 µM [inhibitor, single point].

Which “activity, negative = inhibition” value does the source give for `CCOc1ccc(NC(=O)c2ccc(F)c(S(=O)(=O)N(CC)Cc3ccccc3)c2)cc1` here?
The value was inactive: 13.2%.

For `COc1ccc(CN2CC3(Cc4ccccc4NC3=O)C2)cc1`, which Potency is on record?
Its Potency is inconclusive: 12.6 µM [inhibitor, partial curve].

Which Potency does the source give for `CCOC(=O)c1scc(-c2ccc(C)cc2)c1S(=O)(=O)N1CCN(c2ccccc2F)CC1` here?
The Potency was inconclusive: 15.8 µM [inhibitor, single point].

With `Cc1cc(-c2ccc(C)c(S(=O)(=O)NCC3CCN(Cc4ccc(F)cc4)CC3)c2)on1` as the compound, how does the Potency read?
Its Potency is inconclusive: 8.91 µM [inhibitor, partial curve, poor fit].

Which “activity, negative = inhibition” value does the source give for `O=C(O)c1c(CNCc2cccc(F)c2)c2ccccc2n1Cc1ccccc1` here?
The value was inactive: -17%.

Which “activity, negative = inhibition” value does the source give for `O=C(NCC(c1ccc2c(c1)OCO2)N1CCOCC1)C(=O)Nc1cccc(Cl)c1` (stereo unspecified) here?
The value was inactive: -9.78%.

For `CCOc1ccc(CN2CC[C@@](C)(O)[C@H](N3CCCC3)C2)cc1`, which Potency is on record?
The Potency was inconclusive: 1 µM [inhibitor, partial curve].

With `CCNC(=O)[C@@H]1CCCN1[C@@H](C(=O)NC)c1ccc(OC)cc1` as the compound, how does the Potency read?
Its Potency is inconclusive: 3.55 µM [inhibitor, single point].

With `CCOCCNc1ncnc2c1CN(C1CCNCC1)C(=O)CN2C` as the compound, how does the “activity, negative = inhibition” value read?
Its value is inactive: 19.5%.

Which “outcome” value does the source give for `Cc1ccc(C(=O)N2CCN(c3cc(-c4cccs4)[nH]n3)CC2)cc1` here?
Its value is “inactive”.

Which Potency does the source give for `CCOc1ccc(NC(=O)c2ccc3c(c2)CCN3S(=O)(=O)c2ccc(Cl)cc2)cc1` here?
Its Potency is inconclusive: 17.8 µM [inhibitor, single point].

For `CC(C)[C@H]1CN(CCC(=O)O)C[C@@H]1NC(=O)CCC1CCCC1`, which “activity, negative = inhibition” value is on record?
Its value is inactive: -8.56%.

For `Cc1cc(C)cc(NC(=O)CCCn2c3ccccc3c(=O)c3ccccc32)c1`, which Potency is on record?
Its Potency is active: 10 µM.

Which Potency does the source give for `CCc1noc(CC2CCOC3(CCN(S(=O)(=O)c4c(C)cc(C)cc4C)CC3)C2)n1` (stereo unspecified) here?
The Potency was inconclusive: 20 µM [inhibitor, single point].

For `CC(=O)c1ccc(N2CCN(C(=O)CCCCn3c(=O)[nH]c4ccccc4c3=O)CC2)cc1`, which Potency is on record?
The Potency was active: 5.62 µM.

With `CC(C)c1nc2c(c(-c3ccc(Cl)cc3)n1)CCN(Cc1cccnc1)CC2` as the compound, how does the Potency read?
The Potency was active: 11.2 µM.

With `CCCn1cc(S(=O)(=O)c2ccc(CC)cc2)c(=O)c2cc(F)c(N(CC)CC)cc21` as the compound, how does the Potency read?
Its Potency is inconclusive: 11.2 µM [inhibitor, single point].

With `COCCN1C[C@H]2CN(C(=O)C3CCC3)C[C@@]2(C(=O)O)C1` as the compound, how does the “activity, negative = inhibition” value read?
Its value is inactive: -3.73%.

Which Potency does the source give for `COc1ccc(Cl)cc1CNCCSc1nnnn1C` here?
Its Potency is inconclusive: 17.8 µM [inhibitor, single point].

For `Cc1nc2n(c1C(=O)Nc1cccc(Cl)c1C)CCC(Nc1ccc(F)cc1)C2` (stereo unspecified), which “activity, negative = inhibition” value is on record?
Its value is inactive: -2.39% [at 44.1 µM].

For `O=C1NC(=NC2CCCCC2)C2(CCN(Cc3cccnc3)CC2)N1c1cccnc1`, which “activity, negative = inhibition” value is on record?
The value was inactive: 7.81%.

Which Potency does the source give for `Cc1cccc(N2CCN(C(=O)c3ccc4c(c3)N(Cc3cccc(Cl)c3)C(=O)c3ccccc3S4=O)CC2C)c1` (stereo unspecified) here?
The Potency was inconclusive: 11.2 µM [inhibitor, single point].

With `Cc1nnc([C@H]2CCN(Cc3ccc(F)cc3)C2)o1` as the compound, how does the Potency read?
Its Potency is inconclusive: 10 µM [inhibitor, partial curve].

For `CO[C@H]1C(=O)N(C2CCN(C(=O)c3cccc4[nH]ccc34)CC2)[C@H]1c1ccncc1`, which “activity, negative = inhibition” value is on record?
Its value is inactive: 2.39%.
